This note sets out measurements from the GPR68 mutational scans of Howard et al. (2025).

The least precise scores are not listed. Not listed are two conditions whose scores span a narrow range. Names with del lack the residues named; names with ins carry added residues between the positions named. For part of these data: The concentration of ogerin is not given here.

B1: GPR68, Q15743 (parent)
chain: MGNITADNSSMSCTIDHTIHQTLAPVVYVTVLVVGFPANCLSLYFGYLQIKARNELGVYLCNLTVADLFYICSLPFWLQYVLQHDNWSHGDLSCQVCGILLYENIYISVGFLCCISVDRYLAVAHPFRFHQFRTLKAAVGVSVVIWAKELLTSIYFLMHEEVIEDENQHRVCFEHYPIQAWQRAINYYRFLVGFLFPICLLLASYQGILRAVRRSHGTQKSRKDQIQRLVLSTVVIFLACFLPYHVLLLVRSVWEASCDFAKGVFNAYHFSLLLTSFNCVADPVLYCFVSETTHRDLARLRGACLAFLTCSRTGRAREAYPLGAPEASGKSGAQGEEPELLTKLHPAFQTPNSPGSGGFPTGRLA

In data set [1] the parent is B1. Put plainly: cAMP reporter score (Enrich2 score, wild type = 0); higher = more signal; HEK293T, FACS bins.
Data set [2] covers variants of B1. Put plainly: surface expression score (Enrich2 score, wild type = 0); higher = more signal; HEK293T, FACS bins.

Turning to MGNITADNSSMSCTIDHTIHQTLAPVVYVTVLVVGFPANCLSLYFGYLQIKARNELGVYLCNLTVADLFYICSLPFWLQYVLQHDNWSHGDLSCQVCGILLYENIYISVGFLCCISVDRYLAVAHPFRFHQFRTLKAAVGVSVVIWAKELLTSIYFLMHEEVIEDENQHRVCFEHYPIQAWQRANNYYRFLVGFLFPICLLLASYQGILRAVRRSHGTQKSRKDQIQRLVLSTVVIFLACFLPYHVLLLVRSVWEASCDFAKGVFNAYHFSLLLTSFNCVADPVLYCFVSETTHRDLARLRGACLAFLTCSRTGRAREAYPLGAPEASGKSGAQGEEPELLTKLHPAFQTPNSPGSGGFPTGRLA [I185N], the cAMP reporter score in data set [1] (pH 5.5) is -1.27; in data set [1] (pH 6), -0.364; in data set [1] (pH 6, modulator: ogerin) it was -1.11. Besides, in data set [2], the surface expression score was -0.587.
With MGNITADNSSMSCTIDHTIHQTLAPVVYVTVLVVGFPANCLSLYFGYLQIKARNELGVYLCNLTVADLFYICSLPFWLQYVLQHDNWSHGDLSCQVCGILLYENIYISVGFLCCISVDRYLAVAHPFRFHQFRTLKAAVGVSVVIWAKELLTSIYFLMHEEVIEDENQHRVCFEHYPIQAWQRAMNYYRFLVGFLFPICLLLASYQGILRAVRRSHGTQKSRKDQIQRLVLSTVVIFLACFLPYHVLLLVRSVWEASCDFAKGVFNAYHFSLLLTSFNCVADPVLYCFVSETTHRDLARLRGACLAFLTCSRTGRAREAYPLGAPEASGKSGAQGEEPELLTKLHPAFQTPNSPGSGGFPTGRLA [I185M], the cAMP reporter score was -0.059 in data set [1] (pH 5.5); -0.196 in data set [1] (pH 6); -0.53 in data set [1] (pH 6, modulator: ogerin); -1.29 in data set [1] (pH 6.5, modulator: ogerin). For the same variant, in data set [2], the surface expression score was found to be 0.465.
